Experimental data taken from PubChem BioAssay AID485281 (National Center for Advancing Translational Sciences (NCATS), 2010).
Where “and” joins values, the source holds several entries; their conditions need not be identical. Equal entries are not always repeated. Among all 350,000 compounds or so, about 260 (0.074%) were called active. Inconclusive means that the source gave no clear call. Such entries were picked first, then a sample of the others. The call rests on the fitted dose curve; in most records, active means well fitted inhibition curve with a large enough effect; inconclusive means small, poorly fitted or top-dose-only effect; inactive means no such curve, though single readings can be large or run the other way. Potencies beside an inconclusive call are fits to weak or partial responses and may not hold up.

Molecular target: Ferritin light chain (Equus caballus) (UniProt P02791)
Experiment: qHTS Assay for Identification of Novel General Anesthetics; further: nearly all actives have a fitted effect of over 20% in size
Settings: apoferritin/1-aminoanthracene competitive binding, fluorescence; activity change, negative = displacement: at 77.5 µM (top of the series)
Method in brief: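 Concentration-response curves derived by four-parameter Hill fitting of normalized fluorescence, where compounds displaced 1-AMA from 10 uM horse apoferritin following a brief 10 min room-temperature incubation; propofol titration acted as positive control.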
On the % scale 0 is the no-effect control and ±100 the full control effect; potency means the concentration at half of the fitted maximal effect; tags describe the fitted curve by direction and shape.

UniProt P02791, sequence (P02791 whole entry, looked up): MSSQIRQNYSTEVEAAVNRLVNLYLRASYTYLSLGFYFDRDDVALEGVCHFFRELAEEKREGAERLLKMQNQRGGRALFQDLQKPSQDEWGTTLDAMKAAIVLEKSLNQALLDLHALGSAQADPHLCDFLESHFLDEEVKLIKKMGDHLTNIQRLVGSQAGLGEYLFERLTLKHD

Compound | Potency | activity change, negative = displacement
O=C(NCCCN1CCCC1=O)c1ccc(OCc2ccccc2)cc1 | inconclusive: 22.4 µM [inhibitor, partial curve] | 
Cc1ccc(NC(=S)N2CCCCCC2)c(C)c1 | inconclusive: 35.5 µM [inhibitor, single point] | 
CC1CC(C)(C)CC2(C1)NC(=O)N(CC(=O)Nc1ccc(N3CCCCC3)cc1)C2=O (stereo not given) | inconclusive: 31.6 µM [inhibitor, single point] | 
C=CCN1N=C(/C=C/c2ccc(OC)cc2)CCC1=O |  | inactive: 1.43%
Cc1cccn2c(=O)c(/C=C(\C#N)C(N)=O)c(Oc3ccccc3)nc12 |  | inactive: 45.1%
CCCCCCCOc1ccc(C(=O)Nc2cccnc2)cc1 | inconclusive: 5.01 µM [inhibitor, full curve, poor fit] | 
CCOC(=O)C(C(=O)NCc1ccc(F)cc1)c1ncc(C(F)(F)F)cc1Cl (stereo not given) | inconclusive: 56.2 µM [inhibitor, single point] | 
COc1ccc(CC2S/C(=N/N=C/c3ccccc3O)NC2=O)cc1 (stereo not given) |  | inactive: 1.77%
CCCN1C(=O)C(Cc2nc3ccccc3c(=O)n2CC)c2ccccc21 (stereo not given) |  | inactive: -10.8%
CN(c1ccccc1)S(=O)(=O)c1ccc(NC(=O)c2ccc(-c3ccccc3)cc2)cc1 |  | inactive: -16.1%
CCCc1cc(N2CCN(c3cc(Cl)ccc3C)CC2)n2cnnc2n1 | inconclusive: 50.1 µM [inhibitor, partial curve] | 
COc1ccc(C(=O)N2CCCC(Nc3ccc(C(C)C)cc3)C2)c(OC)n1 (stereo not given) | inconclusive: 35.5 µM [inhibitor, single point] | 
COc1ccc(CNC(=O)CSc2nn3c(=O)c(C(C)(C)C)nnc3s2)cc1OC | inconclusive: 35.5 µM [inhibitor, partial curve] | 
Cc1ccc(NC(=O)CCc2nnc3n(CC(C)C)c(=O)c4ccccc4n23)cc1C |  | inactive: -3.65%
O=C(NC(=S)Nc1ccc(CN2CCOCC2)cc1)c1ccc([N+](=O)[O-])cc1Cl |  | inactive: -17.3%
CC(C1CC2CCC1C2)n1c(COc2ccccc2F)nnc1SCC(N)=O (stereo not given) | inconclusive: 44.7 µM [inhibitor, partial curve] | 
Cc1ccc(-n2nc3c(N4CCC(C(=O)N5CCCCC5)CC4)nnc(C)c3c2C)cc1 | inconclusive: 39.8 µM [inhibitor, single point] | 
CN(CC(=O)Nc1ccc(F)c(F)c1)S(=O)(=O)c1cccc2cccnc12 | inconclusive: 50.1 µM [inhibitor, single point] | 
CCCCN(CCCC)C(=O)CN(C)S(=O)(=O)c1ccc2c(c1)c(=O)n(C)c(=O)n2C | inconclusive: 35.5 µM [inhibitor, partial curve] | 
Cc1ccc(-n2c(=O)c3c(c4cc(C)ccc4n3C)n(CC(=O)NCc3ccccc3Cl)c2=O)cc1 |  | inactive: 4.7%
CCCCNC(=O)C(CC)Sc1nnc(-c2cccc(F)c2)c(-c2cccc(F)c2)n1 (stereo not given) | inconclusive: 14.1 µM [inhibitor, partial curve] | 
CC1CCN(c2ccc(/C=N/n3nnnc3N)cc2[N+](=O)[O-])CC1 | inconclusive: 12.6 µM [inhibitor, partial curve] | 

Compound | Potency | activity change, negative = displacement
Cc1nc2c(C(=O)NCCc3ccc(Cl)cc3)cnn2c(C)c1Cc1c(F)cccc1Cl |  | inactive: -2.06%
Cc1cc(C)cc(N2CC(c3nc(-c4ccccc4C)no3)CC2=O)c1 (stereo not given) |  | inactive: 119%
CC(=O)c1cccc(NC(=O)CC2S/C(=N/N=C3CCCCCC3)NC2=O)c1 (stereo not given) | inconclusive: 50.1 µM [inhibitor, single point] | 
CC(=O)Nc1c(C)nn(-c2ccccc2)c1N1CCC(C(=O)NCc2ccc(Cl)cc2)CC1 | inconclusive: 50.1 µM [inhibitor, single point] | 
CC(C)CN1C(=O)C(=O)N(CC(=O)N2CCC(Cc3ccccc3)CC2)C1=O | inconclusive: 39.8 µM [inhibitor, partial curve] | 
CC1CCCC(NC(=O)NC(=O)CCl)C1C (stereo not given) | inconclusive: 14.1 µM [inhibitor, partial curve] | 
CCOC(=O)N1CCN(S(=O)(=O)c2ccc(C(=O)Nc3sc4c(c3C(N)=O)CCN(CC)C4)cc2)CC1 | inconclusive: 35.5 µM [inhibitor, partial curve] | 
c1ccc(C2C3=C(Nc4ncnn42)c2ccccc2CCC3)cc1 (stereo not given) | inconclusive: 17.8 µM [inhibitor, partial curve, poor fit] | 
O=C(Nc1cc(S(=O)(=O)N2CCCCC2)ccc1O)c1ccccc1NS(=O)(=O)c1ccc(F)cc1 |  | inactive: -1.75%
Cc1ccccc1-c1ncnn1-c1sc2c(c1C#N)CCCCC2 | inconclusive: 11.2 µM [inhibitor, partial curve] | 
COc1ccc(-c2cc(C(=O)OCC(=O)c3ccc(C)cc3)c3cccc(Cl)c3n2)cc1 |  | inactive: -5.3%
COCc1cc(CN2CCCC2)c(O)c2ncccc12 | inconclusive: 35.5 µM [inhibitor, single point] | 
CCOC(=O)Nc1ccc(=O)n(Cc2c(Cl)cccc2Cl)c1 |  | inactive: -14.7%
CN(C)S(=O)(=O)c1cccc(NC(=O)COC(=O)/C=C/c2cccs2)c1 | inconclusive: 25.1 µM [inhibitor, partial curve] | 
Cc1cc(N2C(=O)C3C4C=CC(C4)C3C2=O)ccc1NC(=O)c1cccs1 (stereo not given) | inconclusive: 22.4 µM [inhibitor, partial curve, poor fit] | 
COc1c(OC(C)=O)ccc(/C=C/c2ccc3ccccc3n2)c1[N+](=O)[O-] | inconclusive: 44.7 µM [inhibitor, single point] | 
CC(C)NC(=O)Nc1ccc2c(c1)N(C)C(=O)c1ccccc1S2 | inconclusive: 17.8 µM [inhibitor, partial curve] | 
Cc1nn(Cc2noc(C(=O)NCc3ccc(F)cc3)n2)c(C)c1Br | inconclusive: 56.2 µM [inhibitor, single point] and inconclusive: 28.2 µM [inhibitor, partial curve] | 
Cc1nn(-c2ccccc2)c(/N=C/c2ccc(O)cc2)c1-c1ccccc1 |  | inactive: -7.05%
c1ccc(-c2nc(N3CCCCCC3)c3ccccc3n2)nc1 | inconclusive: 31.6 µM [inhibitor, partial curve] | 
O=c1oc2ccc(Br)cc2cc1S(=O)(=O)c1ccc(F)cc1 |  | inactive: -18%
COc1ccccc1CC(=O)N1CCCc2ccccc21 | inconclusive: 14.1 µM [inhibitor, partial curve] | 

Compound | Potency | activity change, negative = displacement
Cn1c(=O)cc(OCCCC(=O)NCCC2=CCCCC2)c2ccccc21 | inconclusive: 31.6 µM [inhibitor, single point] | 
CCc1nnc(NC(=O)CSc2nc3c([nH]c4ccccc43)c(=O)n2-c2cc(C)cc(C)c2)s1 | inconclusive: 2.82 µM [inhibitor, full curve, poor fit] | 
COc1cccc(Cn2cccc(NC(=O)NCc3ccccc3)c2=O)c1 | inconclusive: 5.62 µM [inhibitor, full curve] | 
Cc1ccc(C)c(NS(=O)(=O)c2cc(Br)cnc2N)c1 | inconclusive: 35.5 µM [inhibitor, partial curve] | 
O=C(CSCc1ccccc1)Nc1ccc(F)cc1F | inconclusive: 22.4 µM [inhibitor, partial curve] | 
COc1ccc(NC(=O)C2=CC(c3cccs3)=NS(=O)(=O)N2C)cc1 | inconclusive: 31.6 µM [inhibitor, partial curve] | 
OC(c1ccc2c(c1)OCO2)c1nccc2ccccc12 (stereo not given) | inconclusive: 25.1 µM [inhibitor, partial curve] | 
Cc1ccc(Nc2c([N+](=O)[O-])cc(C(=O)N3CC(=O)Nc4ccccc43)cc2[N+](=O)[O-])c(C)c1 | inconclusive: 17.8 µM [inhibitor, partial curve] | 
COc1cccc(Nc2ccc([N+](=O)[O-])c3nonc23)c1 | inconclusive: 28.2 µM [inhibitor, partial curve] | 
Cn1nc(C(=O)Nc2cccc(C(F)(F)F)c2)c2ccccc2c1=O | inconclusive: 39.8 µM [inhibitor, partial curve] | 
COc1ccc(O[C@H]2C=C[C@@H](c3ccccc3)O[C@H]2CO/N=C2/c3cc(OC)ccc3O[C@@H](c3cccc(OC)c3)[C@H]2O)cc1 |  | inactive: -11.3% [at 15.3 µM]
C/C(N)=C(/C#N)C(=O)COC(=O)COc1ccc(Cl)cc1C | inconclusive: 22.4 µM [inhibitor, partial curve] | 
O=C(O)C1CCCCC1C(=O)Nc1nc(-c2ccc(Cl)s2)cs1 (stereo not given) | inconclusive: 89.1 µM [inhibitor, partial curve, poor fit] | 
CCC(C)(C)NC(=O)C(c1cccnc1)N(C(=O)c1csnn1)c1ccccc1 (stereo not given) |  | inactive: -0.437%
O=C(N/N=C/c1ccccc1)c1sccc1OCc1ccc(F)cc1 | inconclusive: 25.1 µM [inhibitor, partial curve] | 
CC(C)c1ccc(C(=O)CSc2n[nH]c(-c3ccncc3)n2)cc1 | inconclusive: 39.8 µM [inhibitor, partial curve] | 
COCCNC(=O)C1CCN(S(=O)(=O)c2ccc3c(c2)CCCN3C(C)=O)CC1 |  | inactive: 0.179%
Cc1cc(C(=O)Cn2nc(C(=O)O)c3ccccc3c2=O)c(C)n1CC(F)(F)F | inconclusive: 11.2 µM [inhibitor, partial curve] | 
CCOC(=O)c1c(C)oc2nc(C)nc(NCC3CCN(Cc4ccc(Cl)cc4)CC3)c12 |  | inactive: -7.36%
CC1Sc2ccc(S(=O)(=O)N3CCN(c4ccccc4)CC3)cc2NC1=O (stereo not given) | inconclusive: 31.6 µM [inhibitor, single point] | 
CC(=O)OCC#CCSc1nnc(-c2cccc(Br)c2)o1 | inconclusive: 31.6 µM [inhibitor, partial curve] | 
